Variants at the floor of the assay are shown more often than the library holds them.

The source of these data is the RNAGym collection of RNA variant scans (doi:10.1073/pnas.2313332121).

B1: TPR 5TU (parent)
chain: GGAUCUUCUCGAUCUAACAAAAAAGACAAAUCUGCCACAAAGCUUGAGAGCAUCUUCGGAUGCAGAGGCGGCAGCCUUCGGUGGCGCGAUAGCGCCAACGUUCUCAACUAUGACACGCAAAACGCGUGCUCCGUUGAAUGGAGUUUAUCAUG

The series covers variants of B1. Put plainly: polymerase ribozyme fitness, log enrichment relative to wild type (log ratio); higher = more active; in vitro selection for triplet polymerase activity. A digest of the protocol: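 Fitness measures genotype enrichment against wild-type enrichment on a logarithmic scale, with inverse-variance-weighted averaging of replicates. The logarithm is base 2, and genotypes were kept only with ≥10 input reads and ≥1 read per output in Illumina sequencing. The sequenced libraries came from one triplicate in vitro selection round, including frozen incubation at −7 °C, of PCR-built, transcribed mutant libraries of each subunit of a heterodimeric triplet polymerase ribozyme.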
As to GGAUCUUCUCGAUCUAACAAAAAAGACAAAUCUGCCACAAAGCUUGAGAGCAUCUUCGGAUGCAGAGCCGGCAGCCUACGGUGGCGCGAUAGCGCCAACGUUCUCAACUAUGACACGCAAAACGCGUGCUCCGUUGAAUGGAGUUUAUCAUG, the “polymerase ribozyme fitness (log ratio)” value is ≤ -4.2.

Take GGAUCUUCUCGAUCUAACAAAAAAGACAAAUCUGCCACAAAGCUUGAGAGCAUCUUCGGAUGCAGAGCCGGCAGCCUUCGGUGGGGCGAUAGCGCCAACGUUCUCAACUAUGACACGCAAAACGCGUGCUCCGUUCAAUGGAGUUUAUCAUG: the “polymerase ribozyme fitness (log ratio)” value was ≤ -4.2.

Consider GGAUCUUCUCGAUCUAACAAAAAAGACAAAUCUGCCACAAAGCUUGAGAGCAUCUUCGGAUGCAGAGCCGGCAGCCUUCGGUGGCGCGAUAGCGCCAACGUUCUCAACUAUGACACGCAAACCGCGUGCUCCGUUGAAUGGAGUUUAUCAUG, for which the “polymerase ribozyme fitness (log ratio)” value was ≤ -4.2.

Turning to GGAUCUUCUCGAUCUAACAAAAAAGACAAAUCUGCCACAAAGCUUGAGAGCAUCUUCGGAUGCAGAGCCGGCAGCCUUAGGUUGCGCGAUAGCGCCAACGAUCCCAAGUAUGACACGCAAAACGCGUGCUCCGUUGAAUGGGGUUUAUCAUG, the “polymerase ribozyme fitness (log ratio)” value is ≤ -4.2.

For GGAUCUUCUCGAUCUAACAAAAAAGACAAAUCUGCCACAAAGCUUGAGAGCAUCUUCGGAUGCAGAGCCGGCGGCCUUCGGUGGGGCGAUAGCGCCGACGGUCUCAACUAUGACACGCAAAACGCGUGCUCCGUUGAAUGGAGCUUAUCAUG, the “polymerase ribozyme fitness (log ratio)” value is ≤ -4.2.

In the case of GGAUCUUCUCGAUCUAACAAAAAAGACAAAUCUGCCACAAAGCUUGAGAGCAUCUUCGGAUGCAGAGCCGGCAGCCUUCGGUGGCGCGAUAGCGCCAACGUUCUCAACUAUGACACGCAACACGCGUGCUCCGUUGAAUGGAGUUUAUCAUG, the “polymerase ribozyme fitness (log ratio)” value was ≤ -4.2.

In the case of GGAUCUUCUCGAUCUAACAAAAAAGACAAAUCUGCCACAAAGCUUGAGAGCAUCUUCGGAUGCAGAGCCGGCAGCCUUCGGUGGCGCGAUAACGCCAACGUUCUCAACUAUGACACGCUAAACGGGUGCUCCGUUGAAUGGAGUUUAUCAUG, the “polymerase ribozyme fitness (log ratio)” value is ≤ -4.2.

In the case of GGAUCUUCUCGAUCUAACAAAAAAGACAAAUCUGCCACAAAGCUUGAGAGCAUCUUCGGAUGCAGAGCCGGCAGCCUUCGGUGGCGCGAUAUCGCCAACGUUCUCAACUAUGACACGCAAAACGCGUGCUCCGUUGAAUGGAGUUUAUCAUG, the “polymerase ribozyme fitness (log ratio)” value is ≤ -4.2.

Regarding GGAUCUUCUCGAUCUAACAAAAAAGACAAAUCUGCCACAAAGCUUGAGAGCAUCUUCGGAUGCAGAGCCGGCAGCCUUCGGUGGCGCGAUAGCGCCAAGGUUCUCAACUAUGACACGCAAAACGCGUGCUCCGUUGAAUGGAGUUUAUCAUG, the “polymerase ribozyme fitness (log ratio)” value is ≤ -4.2.

Take GGAUCUUCUCGAUCUAACAAAAAAGACAAAUCUGCCACAAAGCUUGAGAGCAUCUUCGGAUGCAGAGCCGUCAGCCUUCGGUGGUGCGAUUUCGCCAACGUACUCAACUAUGACACGCAAAACGCGUACUCCGUUGAAUGGAGUUUAUCAUG: the “polymerase ribozyme fitness (log ratio)” value was ≤ -4.2.

As to GGAUCUUCUCGAUCUAACAAAAAAGACAAAUCUGCCACAAAGCUUGAGAGCAUCUUCGGAUGCAGAGUCGGCGGCCUUCGGUGGCGUGAUAGCGCCAACGUUCUCAACUAUGACACGCAAUACGAGUGCUCCGUUGAAUGGAGUUUAUGAUG, the “polymerase ribozyme fitness (log ratio)” value is ≤ -4.2.

As to GGAUCUUCUCGAUCUAACAAAAAAGACAAAUCUGCCACAAAGCUUGAGAGCAUCUUCGGAUGCAGAGCCGGCAGCCUUCGGUGGCGGUAUAGCGCCCACGUUCUCAACUAUGACACGCAAAAUGCGUGCUCCGUUGAAUGGAGAUUAUCAUG, the “polymerase ribozyme fitness (log ratio)” value was ≤ -4.2.

For the variant GGAUCUUCUCGAUCUAACAAAAAAGACAAAUCUGCCACAAAGCUUGAGAGCAUCUUCGGAUGCAGAGCCGGCAGCCUUUGGUGUCGCGAUAGCGCCAACGUUCUCAACUAUGUCACGCAAAACGCGUGCUCCGUUGAAUGGAGUUUAUCAUG, the “polymerase ribozyme fitness (log ratio)” value was ≤ -4.2.

For GGAUCUUCUCGAUCUAACAAAAAAGACAAAUCUGCCACAAAGCUUGAGAGCAUCUUCGGAUGCAGAGCCGGCAGCCUUCGGUCGCGCGAUAGCGCCAACGUUCUCAACUAUGACACGCAAAACGCGUGCUCCGUUGAAUGGAGUUUAUCAUG, the “polymerase ribozyme fitness (log ratio)” value is ≤ -4.2.

As to GGAUCUUCUCGAUCUAACAAAAAAGACAAAUCUGCCACAAAGCUUGAGAGCAUCUUCGGAUGCAGAGCCGGCAGCCUUCGGUGGCGCGAUAGCGCCAAGGUUCUCAACUAUGACACGCAAAACGCGUGCUCCGUUGAAUCGAGUUUAUCAUG, the “polymerase ribozyme fitness (log ratio)” value is ≤ -4.2.

As to GGAUCUUCUCGAUCUAACAAAAAAGACAAAUCUGCCACAAAGCUUGAGAGCAUCUUCGGAUGCAGAGUUGGCAGCCUUCGGUGGCGCGAUAGCGCCAACGUGCUCAACUAUGACACGCAAAACGCGUGCUCCGUUGAAUGGAGUGUAUCAUG, the “polymerase ribozyme fitness (log ratio)” value was ≤ -4.2.

GGAUCUUCUCGAUCUAACAAAAAAGACAAAUCUGCCACAAAGCUUGAGAGCAUCUUCGGAUGCAGAGCCGGCAGCCUUCGGUGGCGCGAUAUCGCCAACGUUCUCAACUAUGACACGCAAAACGCAUGCUCCGUUGGAUGCAGUUUAUCACG: the “polymerase ribozyme fitness (log ratio)” value was ≤ -4.2.

Turning to GGAUCUUCUCGAUCUAACAAAAAAGACAAAUCUGCCACAAAGCUUGAGAGCAUCUUCGGAUGCAGAGCCGGCAGCCUUCGGUGGCGCGAUAGCGCCAACGAUCUCAACUAUGACACGCAAAACGCGUGCUCCGUUGAAUGGAAUUUAUCAUG, the “polymerase ribozyme fitness (log ratio)” value is ≤ -4.2.

As for GGAUCUUCUCGAUCUAACAAAAAAGACAAAUCUGCCACAAAGCUUGAGAGCAUCUUCGGAUGCAGAGCCGGCAGCCUUCGGUGUCGCGAUAGCGCCAGCGUUCUCAACUAUGACACGCAAAACGCGUGCUCCGUUGAAUGGAGUUUAUCAUG, the “polymerase ribozyme fitness (log ratio)” value was ≤ -4.2.
